Assay results taken from the RNAGym collection of RNA variant scans (doi:10.1073/pnas.2313332121).
This sample is rich in variants without activity.

B1: TPR 5TU (parent)
chain: GGAUCUUCUCGAUCUAACAAAAAAGACAAAUCUGCCACAAAGCUUGAGAGCAUCUUCGGAUGCAGAGGCGGCAGCCUUCGGUGGCGCGAUAGCGCCAACGUUCUCAACUAUGACACGCAAAACGCGUGCUCCGUUGAAUGGAGUUUAUCAUG

Variants of: B1
Experiment: polymerase ribozyme fitness, log enrichment relative to wild type (log ratio); higher = more active; in vitro selection for triplet polymerase activity
Summary of the method: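 Fitness measures genotype enrichment against wild-type enrichment on a logarithmic scale, with inverse-variance-weighted averaging of replicates. The logarithm is base 2, and genotypes were kept only with ≥10 input reads and ≥1 read per output in Illumina sequencing. The sequenced libraries came from one triplicate in vitro selection round, including frozen incubation at −7 °C, of PCR-built, transcribed mutant libraries of each subunit of a heterodimeric triplet polymerase ribozyme.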

Variant | polymerase ribozyme fitness (log ratio)
U31A A60C G62U C75U U78C G83A G143A | ≤ -4.2
U31A A60G C72U A89G U102C A122G | ≤ -4.2
U31A C32G A41U G67U G80C G86C A147U | ≤ -4.2
U31A C32U C36A U53A G58A U109C U134A | ≤ -4.2
U31A C35U A66C C85G | ≤ -4.2
U31A C51A A73G C123A | ≤ -4.2
U31A C57U A91U A97U G141A | ≤ -4.2
U31A C57U C96A U111C A115U G124U | ≤ -4.2
U31A C95G U130A | -3.43
U31A G34A G100U C149G | ≤ -4.2
U31A G46U A52G U55A U78G G100U | ≤ -4.2
U31A G48C A60G C72U C95G A121C U148A | ≤ -4.2
U31A G48U G50C A64U A110U A120G | ≤ -4.2
U31A G50C C85U | -3.83
U31A G67C U127C | ≤ -4.2
U31A G68A A73G C96U G152C | ≤ -4.2
U31A G71A G81A A122C | ≤ -4.2
U31A G80C U90C C103G G136U A150C | ≤ -4.2
U31A G81C C96G U111A G126A | ≤ -4.2
U31A U44A A52C G71U G83C G86A A97C U104A | ≤ -4.2
U31A U44A G68A G81A U104G C125A | ≤ -4.2
U31A U45C G71A C87U A97G A142G | ≤ -4.2
U31A U53A | -0.327
U31A U53A G68U C95A C149G | ≤ -4.2

Variant | polymerase ribozyme fitness (log ratio)
U31A U55A A97U U145G | -0.219
U31A U55A A147G | -0.55
U31A U55A G83A G117A | -0.253
U31A U61C C63U A66G G70A G83U | ≤ -4.2
U31A U90G C95U G141U | ≤ -4.2
U31C A37C U56A G86A C108U | ≤ -4.2
U31C A40C G94A | 1.25
U31C A47C C79U A91U | ≤ -4.2
U31C A66G G86C C108G U127A A138G | ≤ -4.2
U31C A91C U148C | ≤ -4.2
U31C C35G C36U C51G G92C U109A U151A | ≤ -4.2
U31C C36G G136C U139C | ≤ -4.2
U31C C43U G92C A137U G140U | ≤ -4.2
U31C C43U G92C C108U G143U | ≤ -4.2
U31C C54A C93G | ≤ -4.2
U31C C72U G86U C129G | ≤ -4.2
U31C C76A C93U G100A G141C | ≤ -4.2
U31C C79G U139C U144G | ≤ -4.2
U31C C79U U102C A106G U134G | ≤ -4.2
U31C C87A | -4.2
U31C C95G | -0.224
U31C C96G A137U | ≤ -4.2
U31C C99G C103U | -0.958
U31C G50A A73U C93U C125U A142G | ≤ -4.2

Variant | polymerase ribozyme fitness (log ratio)
U31C G68C C95A A119U C129A A138G C149A | ≤ -4.2
U31C G70U C85U A91G | ≤ -4.2
U31C G86U U111G C116A | ≤ -4.2
U31C U53G G67C C76G G83A | -3.62
U31G A37C C38A G70C U78A C79U C132U | ≤ -4.2
U31G A37U A47C G68A C96A U135A A150C | ≤ -4.2
U31G A40U A91U | ≤ -4.2
U31G A41G U44A C54U C93U | ≤ -4.2
U31G A41U C43A C72U G92U A137G U145G | ≤ -4.2
U31G A122U A142C | -1.56
U31G C35G G62C U77A G83U | ≤ -4.2
U31G C36U A91G C93A A115G | ≤ -4.2
U31G C43A G68C G81A C87G | ≤ -4.2
U31G C54A G88A C95A A106C G136U | ≤ -4.2
U31G C54G C108G | ≤ -4.2
U31G C54U C95U C125A U139C | ≤ -4.2
U31G C57U G83C C87A | ≤ -4.2
U31G C63A U77C C131G C149U U151G | ≤ -4.2
U31G C63U C69U G70C G84U G126A U135A | ≤ -4.2
U31G C76G A91C C125G | ≤ -4.2
U31G C79U C87G A120C G133A | ≤ -4.2
U31G C95U | 0.463
U31G G42C G50C C57A C79G G80C G136C | ≤ -4.2
U31G G50A G58A U61A C87A U127G | ≤ -4.2

Variant | polymerase ribozyme fitness (log ratio)
U31G G50U C76U C85A A119U | ≤ -4.2
U31G G58C G140C | -4
U31G G59U C69A U134G G136U | -3.84
U31G G62C G88C A119G | ≤ -4.2
U31G G65C A73G C93G A119U | ≤ -4.2
U31G G86U G88A A107G U111A G152A | ≤ -4.2
U31G U44G G50A G70A G86U C114A C131U A137C U144G | ≤ -4.2
U31G U45A A49C G84A A113G A142C | ≤ -4.2
U31G U53G G70U A89U C93U C114A C123G U135C G152U | ≤ -4.2
U31G U55A A142U | -1.54
U31G U55C C95U C108A C123A G124U | ≤ -4.2
U31G U61A C93G A121U | ≤ -4.2
C32A A37C C79A C93U | ≤ -4.2
C32A A37U U56A G74A C76G G86A A115G G124A U151G | ≤ -4.2
C32A A37U U102A A137C A138U G141C | ≤ -4.2
C32A A39U C125U U144G | ≤ -4.2
C32A A39U G58A C72U G80U G83A | ≤ -4.2
C32A A41C C51U G58A C69U C93U C108U | ≤ -4.2
C32A A41U G42A C75U C87G G92A A150C | ≤ -4.2
C32A A47C G81C C95G G112A G140C | ≤ -4.2
C32A A47U G100U U109G A115U | ≤ -4.2
C32A A49U U61A C69G A120U U145C C149G | ≤ -4.2
C32A A52U C63A A64U G74U A137C | ≤ -4.2
C32A A73G C76A C85U C95U G143A | ≤ -4.2

Variant | polymerase ribozyme fitness (log ratio)
C32A A91U C93A | ≤ -4.2
C32A C35U A60C G62A C114U | ≤ -4.2
C32A C85U | -4.06
C32A C85U A142U | ≤ -4.2
C32A C114A A137G | ≤ -4.2
C32A G46C C54U U56A G84U U145A | ≤ -4.2
C32A G50A A137G | ≤ -4.2
C32A G59C G68A A73G G83C U130C A138G | ≤ -4.2
C32A G68A U77A C108A | ≤ -4.2
C32A U33G A66G G83A U102G C118G G124C G141C G143U | ≤ -4.2
C32A U33G C54G U78A C87A C105G A115G | ≤ -4.2
C32A U44A A60C C79G G92U | ≤ -4.2
C32A U45A G140U | ≤ -4.2
C32A U53A A66G U78G | ≤ -4.2
C32A U55A C76U A89G G92U A119G | ≤ -4.2
C32A U55C G65A U77G C87U C103A C125A G141C | ≤ -4.2
C32A U61A C75U G94A U102G A107G A147C | ≤ -4.2
C32A U61A U78A G86U | ≤ -4.2
C32G A37C C85G | ≤ -4.2
C32G A37U A113C C114U A137U U146C | ≤ -4.2
C32G A41C C57U U146C C149A | ≤ -4.2
C32G A41U A47C A49C A113G C125U | ≤ -4.2
C32G A41U A91U A107G C125G U135C | ≤ -4.2
C32G A47G U56A C85U U109A | ≤ -4.2

Variant | polymerase ribozyme fitness (log ratio)
C32G A49C A52U A138U | ≤ -4.2
C32G A49C A142U | ≤ -4.2
C32G A49G G50C G67A G88A A106G G126U U130A G133U | ≤ -4.2
C32G A49U G65U C93U C99G A110U A147U | ≤ -4.2
C32G A52G A89U G92C C95U | ≤ -4.2
C32G A52U C99G | ≤ -4.2
C32G A89U C95U G152A | ≤ -4.2
C32G A91C C95G C116U | ≤ -4.2
C32G C38U C95G G140A | ≤ -4.2
C32G C51A C87A G152A | ≤ -4.2
C32G C51U G94U | ≤ -4.2
C32G C54U A73C C79U C87G U145G | ≤ -4.2
C32G C72U C96G U134G U135G | ≤ -4.2
C32G C79U C96G A142C | -3.79
C32G C87G G133U U144G | ≤ -4.2
C32G G42A G65C C95U C105A A113U A138U U144C | ≤ -4.2
C32G G42C U53A A66C U78C A91U C105U G112U C114G | ≤ -4.2
C32G G48A A52G A121U G133C | ≤ -4.2
C32G G59C C75U C93U G100U C125G | ≤ -4.2
C32G G70C | ≤ -4.2
C32G G71C A91U C131A G152U | ≤ -4.2
C32G G80C C95U A113G G128A | ≤ -4.2
C32G G88A A110G A122U | ≤ -4.2
C32G G94A | -3.8

Variant | polymerase ribozyme fitness (log ratio)
C32G G141A | ≤ -4.2
C32G U45C | -4.16
C32G U55A G58A G68A C85U G88C C93A A106G C116A U135A | ≤ -4.2
C32G U55G C96A A98U C103G G141A U148C | ≤ -4.2
C32G U78C G84A G140U U144C U145A | ≤ -4.2
C32G U130A | ≤ -4.2
C32G U146A | -3.88
C32U A39U U55G G88A A107U G124U A142C U148G | ≤ -4.2
C32U A40G C105A | -3.89
C32U A40G G81C C85U G88U C93A A97C A106U U130A G143U | ≤ -4.2
C32U A41C A49C A52G U56G C79A C132A | ≤ -4.2
C32U A41U | -3.95
C32U A49C | -4.13
C32U A49C U53A G58U A91G G117U A119C A138C G141C | ≤ -4.2
C32U A49G A52G A138G | ≤ -4.2
C32U A52U U90C G128C | ≤ -4.2
C32U A66C C85U C93U | ≤ -4.2
C32U C35A C36G G83U C93U U139G G143U | ≤ -4.2
C32U C35A G88C A91U G143U | ≤ -4.2
C32U C36A U55G C93G G133U G141U | -4.01
C32U C43U C93U C95G C99G C114G C118G C149G A150U | ≤ -4.2
C32U C54G G68U C75A | -3.88
C32U C85U | -1.97
